Experimental data: US9234178B2, “Differentiation of human pluripotent stem cells” (Janssen Biotech, Inc., priority 2008, dated 2016)
Read-outs that look alike come from different tables or passages of the source.

How the values were obtained:
[1] = system: cells expressing markers characteristic of the pancreatic endocrine lineage; test: Screening of EMD Kinase Inhibitor Library I for MAFA expression, real-time PCR (Example 10); type: cell-based; conditions: for Gene Induction vs. H1: MAFa: 2.5 μM, days 1, 3, 5 of stage 5, fold increase versus untreated H1 human embryonic stem cells
[2] = system: cells expressing markers characteristic of the pancreatic endocrine lineage; test: Effect of six cyclin dependent kinase inhibitors on insulin, glucagon, MAFA and ARX4 expression, real-time PCR (Example 8); type: cell-based, human; conditions: for Arx4 expression, fold change relative to vehicle treated control / Glucagon expression, fold change relative to vehicle treated control / Insulin expression, fold change relative to vehicle treated control / MAFA expression, fold change relative to vehicle treated control: four days; for insulin expression (in words): at the concentrations tested; for MAFA expression (in words): at the concentrations tested (0.6125, 1.25, 5.0 μM)
Protocol: We tested 6 inhibitors: PubChem ID#5330812 (EMD cat#217714), PubChem ID#4566 (EMD cat#217713), PubChem ID#5330797 (EMD cat#219476), PubChem ID#73292 (EMD cat#341251), PubChem ID#4592 (EMD cat#495620), and PubChem ID#160355 (EMD cat #557360). […] All samples were treated in duplicate. […] Results are expressed as the fold change relative to the vehicle treated control, as measured by real-time PCR.

[3] = system: cells expressing markers characteristic of the pancreatic endocrine lineage; test: Screening of BIOMOL Kinase Inhibitor Library, real-time PCR (Example 7); conditions: for Ratio vs. Control: Insulin to Glucagon / Ratio vs. Control: MAFA to Arx4: 4 μM, six days; for fold induction at 4 µM: Homo sapiens, 144 h

CCN(CC)CCCCN1c2ccccc2Oc2ccc(Cl)cc21 [Akt Inhibitor X]
Gene Induction vs. H1: MAFa [1]: 1.4 fold

COc1ccc2c(c1)c(C1=C(c3c[nH]c4ccccc34)C(=O)NC1=O)cn2CCCN(C)C [Gö 6983]
Gene Induction vs. H1: MAFa [1]: 1.0 fold

O=c1cc(N2CCNCC2)oc2c(-c3ccccc3)cccc12 [LY 303511]
fold induction at 2.5 µM ([1]; Embryonic stem cell, days 1, 3, 5 of stage 5, fold increase versus untreated H1 human embryonic stem cells, read-out: Gene Induction vs. H1: MAFa): 1.7

COc1cc2ncnc(Nc3ccc(Oc4ccccc4)cc3)c2cc1OC [Src Kinase Inhibitor I]
Gene Induction vs. H1: MAFa [1]: 2.3 fold

Cl.Cl.NCCNc1ncc(C(N)=O)c(Nc2cccc(C(F)(F)F)c2)n1 [Syk Inhibitor II]
Gene Induction vs. H1: MAFa [1]: 0.8 fold

Cc1cc(C)c(C=C2C(=O)Nc3ccccc32)[nH]1 [VEGF Receptor 2 Kinase Inhibitor III]
Gene Induction vs. H1: MAFa [1]: 1.1 fold

NS(=O)(=O)c1ccc(Nc2nc(OCC3CCCCC3)c3[nH]cnc3n2)cc1 [Well 4566]
Arx4 expression, fold change relative to vehicle treated control ([2]; 0.61 μM): 0.78 fold | Glucagon expression, fold change relative to vehicle treated control ([2]; 0.61 μM): 0.77 fold | Insulin expression, fold change relative to vehicle treated control ([2]; 0.61 μM): 1.0 fold | MAFA expression, fold change relative to vehicle treated control ([2]; 0.61 μM): 1.0 fold | Arx4 expression, fold change relative to vehicle treated control ([2]; 1.25 μM): 0.78 fold | Glucagon expression, fold change relative to vehicle treated control ([2]; 1.25 μM): 0.90 fold | Insulin expression, fold change relative to vehicle treated control ([2]; 1.25 μM): 1.1 fold | MAFA expression, fold change relative to vehicle treated control ([2]; 1.25 μM): 0.8 fold | Arx4 expression, fold change relative to vehicle treated control ([2]; 5.0 μM): 0.69 fold | Glucagon expression, fold change relative to vehicle treated control ([2]; 5.0 μM): 0.96 fold | Insulin expression, fold change relative to vehicle treated control ([2]; 5.0 μM): 1.1 fold | MAFA expression, fold change relative to vehicle treated control ([2]; 5.0 μM): 1.0 fold | insulin expression (in words) [2]: appeared to stimulate insulin expression

Cn1cnc2c(NCc3ccccc3)nc(NCCO)nc21 [Well 4592]
Arx4 expression, fold change relative to vehicle treated control ([2]; 0.61 μM): 0.61 fold | Glucagon expression, fold change relative to vehicle treated control ([2]; 0.61 μM): 0.81 fold | Insulin expression, fold change relative to vehicle treated control ([2]; 0.61 μM): 0.9 fold | MAFA expression, fold change relative to vehicle treated control ([2]; 0.61 μM): 0.9 fold | Arx4 expression, fold change relative to vehicle treated control ([2]; 1.25 μM): 0.54 fold | Glucagon expression, fold change relative to vehicle treated control ([2]; 1.25 μM): 0.70 fold | Insulin expression, fold change relative to vehicle treated control ([2]; 1.25 μM): 1.0 fold | MAFA expression, fold change relative to vehicle treated control ([2]; 1.25 μM): 1.0 fold | Arx4 expression, fold change relative to vehicle treated control ([2]; 5.0 μM): 0.77 fold | Glucagon expression, fold change relative to vehicle treated control ([2]; 5.0 μM): 1.08 fold | Insulin expression, fold change relative to vehicle treated control ([2]; 5.0 μM): 1.3 fold | MAFA expression, fold change relative to vehicle treated control ([2]; 5.0 μM): 0.6 fold | insulin expression (in words) [2]: appeared to stimulate insulin expression | MAFA expression (in words) [2]: did not stimulate MAFA

O=C1c2ccccc2-[n+]2ccc3c([nH]c4ccccc43)c21.[Cl-] [Well 73292]
Arx4 expression, fold change relative to vehicle treated control ([2]; 0.61 μM): 0.38 fold | Glucagon expression, fold change relative to vehicle treated control ([2]; 0.61 μM): 0.29 fold | Insulin expression, fold change relative to vehicle treated control ([2]; 0.61 μM): 0.7 fold | MAFA expression, fold change relative to vehicle treated control ([2]; 0.61 μM): 0.7 fold | Arx4 expression, fold change relative to vehicle treated control ([2]; 1.25 μM): 0.42 fold | Glucagon expression, fold change relative to vehicle treated control ([2]; 1.25 μM): 0.25 fold | Insulin expression, fold change relative to vehicle treated control ([2]; 1.25 μM): 1.0 fold | MAFA expression, fold change relative to vehicle treated control ([2]; 1.25 μM): 1.3 fold | Arx4 expression, fold change relative to vehicle treated control ([2]; 5.0 μM): 0.33 fold | Glucagon expression, fold change relative to vehicle treated control ([2]; 5.0 μM): 0.13 fold | Insulin expression, fold change relative to vehicle treated control ([2]; 5.0 μM): 0.8 fold | MAFA expression, fold change relative to vehicle treated control ([2]; 5.0 μM): 3.1 fold | MAFA expression (in words) [2]: stimulated MAFA expression

CC[C@H](CO)Nc1nc(NCc2ccccc2)c2ncn(C(C)C)c2n1 [Well 160355]
Arx4 expression, fold change relative to vehicle treated control ([2]; 0.61 μM): 0.77 fold | Glucagon expression, fold change relative to vehicle treated control ([2]; 0.61 μM): 0.76 fold | Insulin expression, fold change relative to vehicle treated control ([2]; 0.61 μM): 0.9 fold | MAFA expression, fold change relative to vehicle treated control ([2]; 0.61 μM): 0.9 fold | Arx4 expression, fold change relative to vehicle treated control ([2]; 1.25 μM): 0.65 fold | Glucagon expression, fold change relative to vehicle treated control ([2]; 1.25 μM): 0.61 fold | Insulin expression, fold change relative to vehicle treated control ([2]; 1.25 μM): 1.0 fold | MAFA expression, fold change relative to vehicle treated control ([2]; 1.25 μM): 0.7 fold | Arx4 expression, fold change relative to vehicle treated control ([2]; 5.0 μM): 0.86 fold | Glucagon expression, fold change relative to vehicle treated control ([2]; 5.0 μM): 0.59 fold | Insulin expression, fold change relative to vehicle treated control ([2]; 5.0 μM): 1.1 fold | MAFA expression, fold change relative to vehicle treated control ([2]; 5.0 μM): 0.8 fold | insulin expression (in words) [2]: appeared to stimulate insulin expression | MAFA expression (in words) [2]: did not stimulate MAFA

Nc1nc(Nc2ccc(S(N)(=O)=O)cc2)nn1C(=S)Nc1c(F)cccc1F [Well 5330812]
Arx4 expression, fold change relative to vehicle treated control ([2]; 0.61 μM): 0.68 fold | Glucagon expression, fold change relative to vehicle treated control ([2]; 0.61 μM): 0.26 fold | Insulin expression, fold change relative to vehicle treated control ([2]; 0.61 μM): 0.9 fold | MAFA expression, fold change relative to vehicle treated control ([2]; 0.61 μM): 46.3 fold | Arx4 expression, fold change relative to vehicle treated control ([2]; 1.25 μM): 0.66 fold | Glucagon expression, fold change relative to vehicle treated control ([2]; 1.25 μM): 0.31 fold | Insulin expression, fold change relative to vehicle treated control ([2]; 1.25 μM): 1.3 fold | MAFA expression, fold change relative to vehicle treated control ([2]; 1.25 μM): 209.2 fold | Arx4 expression, fold change relative to vehicle treated control ([2]; 5.0 μM): 0.92 fold | Glucagon expression, fold change relative to vehicle treated control ([2]; 5.0 μM): 4.71 fold | Insulin expression, fold change relative to vehicle treated control ([2]; 5.0 μM): 66.3 fold | MAFA expression, fold change relative to vehicle treated control ([2]; 5.0 μM): 2909.9 fold | insulin expression (in words) [2]: appeared to stimulate insulin expression | MAFA expression (in words) [2]: stimulated MAFA expression

COc1cccc(-c2cc(=O)c3ccccc3o2)c1N [Well B1, PD-98059]
Ratio vs. Control: Insulin to Glucagon [3]: 1.6 | Ratio vs. Control: MAFA to Arx4 [3]: 0.9

CC1CNCCN1S(=O)(=O)c1cccc2cnccc12 (centres unmarked) [Well B4, H-7]
Ratio vs. Control: Insulin to Glucagon [3]: 1.1 | Ratio vs. Control: MAFA to Arx4 [3]: 2.0

COc1cc(/C=C(\C#N)C(N)=O)cc(CSc2nc3ccccc3s2)c1O [Well B8, AG-825]
Ratio vs. Control: Insulin to Glucagon [3]: 1.6 | Ratio vs. Control: MAFA to Arx4 [3]: 0.5

N#CC(C#N)=C(N)/C(C#N)=C/c1cc(O)c(O)c(O)c1 [Well C3, Tyrphostin 51]
Ratio vs. Control: Insulin to Glucagon [3]: 1.3 | Ratio vs. Control: MAFA to Arx4 [3]: 0.9

N#CC(C#N)=Cc1cc(O)c(O)c([N+](=O)[O-])c1 [Well C5, Tyrphostin AG 1288]
Ratio vs. Control: Insulin to Glucagon [3]: 1.0 | Ratio vs. Control: MAFA to Arx4 [3]: 1.1

O=P(O)(O)C(O)c1ccc2ccccc2c1 (centres unmarked) [Well C9, Hydroxy-2-naphthalenylmethylphosphonic acid]
fold induction at 4 µM ([3]; read-out: Ratio vs. Control: Insulin to Glucagon): 0.8 | fold induction at 4 µM ([3]; read-out: Ratio vs. Control: MAFA to Arx4): 0.5
